± gives the standard deviation of the averaged measurements. Restriction of a single-cycle SIVsab GFP reporter by TRIM5α v1-loop variants in CRFK cells. Human variants: read share among cells still uninfected after two challenges over input, higher = gained restriction. Rhesus variants: share among infected cells over input, higher = lost restriction. Reporter dose not given per row. No active / inactive call per row; the paper calls a change when both replicates lie above its controls (mean + 2 SD of stop or wild-type variants, or the top frameshift score). Residues outside the varied loop are taken from Swiss-Prot. The paper reads the human single-substitution scores as noise; they and the rhesus combinations repeat poorly (rank correlation 0.3 to 0.4), indel scores repeat only for the top variants, rhesus substitutions well (0.9).
These sequences were tested on SIVsab (simian immunodeficiency virus of sabaeus monkeys), single-cycle GFP reporter, in CRFK cells (assay: enrichment among uninfected cells over input (fold); higher = stronger restriction). Details: library: human / rhesus combinations.
Experimental: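 Pools of CRFK cells expressing variants of the TRIM5α v1 loop were challenged with the single-cycle reporter, sorted by GFP and sequenced; mean of two replicates.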

Sequence	enrichment
MASGILVNVKEEVTCPICLELLTQPLSLDCGHSFCQACLTANHKKSMLDKGESSCPVCRISYQPENIRPNRHVANIVEKLREVKLSPEGQKVDHCARHGEKLLLFCQEDGKVICWLCERSQEHRGHHTFLTEEVAREYQVKLQAALEMLRQKQQEAEELEADIREEKASWKTQIQYDKTNVLADFEQLRDILDWEESNELQNLEKEEEDILKSLTNSETEMVQQTQSLRELISDLEHRLQGSVMELLQGVDGVIKRTENVTLKKPETFPKNQRRVFRAPDLKGMLEVFRELTDVRRYWVDVTVAPNNISCAVISEDKRQVSSPKPQIIYQAPGTRYTFPTFTNFNYCTGILGSQSITSGKHYWEVDVSKKTAWILGVCAGFQPDAMCNIEKNENYQPKYGYWVIGLEEGVKCSAFQDSSFHTPSVPFIVPLSVIICPDRVGVFLDYEACTVSFFNITNHGFLIYKFSHCSFSQPVFPYLNPRKCGVPMTLCSPSS [human TRIM5α, 330-340 = QAPGTRYTFPTFT]	0.0455 ± 0.061
MASGILVNVKEEVTCPICLELLTQPLSLDCGHSFCQACLTANHKKSMLDKGESSCPVCRISYQPENIRPNRHVANIVEKLREVKLSPEGQKVDHCARHGEKLLLFCQEDGKVICWLCERSQEHRGHHTFLTEEVAREYQVKLQAALEMLRQKQQEAEELEADIREEKASWKTQIQYDKTNVLADFEQLRDILDWEESNELQNLEKEEEDILKSLTNSETEMVQQTQSLRELISDLEHRLQGSVMELLQGVDGVIKRTENVTLKKPETFPKNQRRVFRAPDLKGMLEVFRELTDVRRYWVDVTVAPNNISCAVISEDKRQVSSPKPQIIYGAPGTRYTFPSLVNFNYCTGILGSQSITSGKHYWEVDVSKKTAWILGVCAGFQPDAMCNIEKNENYQPKYGYWVIGLEEGVKCSAFQDSSFHTPSVPFIVPLSVIICPDRVGVFLDYEACTVSFFNITNHGFLIYKFSHCSFSQPVFPYLNPRKCGVPMTLCSPSS [human TRIM5α, 330-340 = GAPGTRYTFPSLV]	0.163 ± 0.054
MASGILVNVKEEVTCPICLELLTQPLSLDCGHSFCQACLTANHKKSMLDKGESSCPVCRISYQPENIRPNRHVANIVEKLREVKLSPEGQKVDHCARHGEKLLLFCQEDGKVICWLCERSQEHRGHHTFLTEEVAREYQVKLQAALEMLRQKQQEAEELEADIREEKASWKTQIQYDKTNVLADFEQLRDILDWEESNELQNLEKEEEDILKSLTNSETEMVQQTQSLRELISDLEHRLQGSVMELLQGVDGVIKRTENVTLKKPETFPKNQRRVFRAPDLKGMLEVFRELTDVRRYWVDVTVAPNNISCAVISEDKRQVSSPKPQIIYQAPGTRYPSLVNFNYCTGILGSQSITSGKHYWEVDVSKKTAWILGVCAGFQPDAMCNIEKNENYQPKYGYWVIGLEEGVKCSAFQDSSFHTPSVPFIVPLSVIICPDRVGVFLDYEACTVSFFNITNHGFLIYKFSHCSFSQPVFPYLNPRKCGVPMTLCSPSS [human TRIM5α, 330-340 = QAPGTRYPSLV]	0.927 ± 0.72
MASGILVNVKEEVTCPICLELLTQPLSLDCGHSFCQACLTANHKKSMLDKGESSCPVCRISYQPENIRPNRHVANIVEKLREVKLSPEGQKVDHCARHGEKLLLFCQEDGKVICWLCERSQEHRGHHTFLTEEVAREYQVKLQAALEMLRQKQQEAEELEADIREEKASWKTQIQYDKTNVLADFEQLRDILDWEESNELQNLEKEEEDILKSLTNSETEMVQQTQSLRELISDLEHRLQGSVMELLQGVDGVIKRTENVTLKKPETFPKNQRRVFRAPDLKGMLEVFRELTDVRRYWVDVTVAPNNISCAVISEDKRQVSSPKPQIIYGARGTRFQSLTNFNYCTGILGSQSITSGKHYWEVDVSKKTAWILGVCAGFQPDAMCNIEKNENYQPKYGYWVIGLEEGVKCSAFQDSSFHTPSVPFIVPLSVIICPDRVGVFLDYEACTVSFFNITNHGFLIYKFSHCSFSQPVFPYLNPRKCGVPMTLCSPSS [human TRIM5α, 330-340 = GARGTRFQSLT]	0.0031 ± 0.0001

Same assay, conditions: library: insertions and deletions

Sequence	enrichment
MASGILVNVKEEVTCPICLELLTQPLSLDCGHSFCQACLTANHKKSMLDKGESSCPVCRISYQPENIRPNRHVANIVEKLREVKLSPEGQKVDHCARHGEKLLLFCQEDGKVICWLCERSQEHRGHHTFLTEEVAREYQVKLQAALEMLRQKQQEAEELEADIREEKASWKTQIQYDKTNVLADFEQLRDILDWEESNELQNLEKEEEDILKSLTNSETEMVQQTQSLRELISDLEHRLQGSVMELLQGVDGVIKRTENVTLKKPETFPKNQRRVFRAPDLKGMLEVFRELTDVRRYWVDVTVAPNNISCAVISEDKRQVSSPKPQIIYGARGTRYQRGTRYQTFVNFNYCTGILGSQSITSGKHYWEVDVSKKTAWILGVCAGFQPDAMCNIEKNENYQPKYGYWVIGLEEGVKCSAFQDSSFHTPSVPFIVPLSVIICPDRVGVFLDYEACTVSFFNITNHGFLIYKFSHCSFSQPVFPYLNPRKCGVPMTLCSPSS [human TRIM5α, 6-codon duplication at 332]	0.155 ± 0.035
MASGILVNVKEEVTCPICLELLTQPLSLDCGHSFCQACLTANHKKSMLDKGESSCPVCRISYQPENIRPNRHVANIVEKLREVKLSPEGQKVDHCARHGEKLLLFCQEDGKVICWLCERSQEHRGHHTFLTEEVAREYQVKLQAALEMLRQKQQEAEELEADIREEKASWKTQIQYDKTNVLADFEQLRDILDWEESNELQNLEKEEEDILKSLTNSETEMVQQTQSLRELISDLEHRLQGSVMELLQGVDGVIKRTENVTLKKPETFPKNQRRVFRAPDLKGMLEVFRELTDVRRYWVDVTVAPNNISCAVISEDKRQVSSPKPQIIYGARGVNFNYCTGILGSQSITSGKHYWEVDVSKKTAWILGVCAGFQPDAMCNIEKNENYQPKYGYWVIGLEEGVKCSAFQDSSFHTPSVPFIVPLSVIICPDRVGVFLDYEACTVSFFNITNHGFLIYKFSHCSFSQPVFPYLNPRKCGVPMTLCSPSS [human TRIM5α, 6-codon deletion at 334]	0.938 ± 0.38
MASGILVNVKEEVTCPICLELLTQPLSLDCGHSFCQACLTANHKKSMLDKGESSCPVCRISYQPENIRPNRHVANIVEKLREVKLSPEGQKVDHCARHGEKLLLFCQEDGKVICWLCERSQEHRGHHTFLTEEVAREYQVKLQAALEMLRQKQQEAEELEADIREEKASWKTQIQYDKTNVLADFEQLRDILDWEESNELQNLEKEEEDILKSLTNSETEMVQQTQSLRELISDLEHRLQGSVMELLQGVDGVIKRTENVTLKKPETFPKNQRRVFRAPDLKGMLEVFRELTDVRRYWVDVTVAPNNISCAVISEDKRQVSSPKPQIIYGARGTRYQTFARGTRYQTFVNFNYCTGILGSQSITSGKHYWEVDVSKKTAWILGVCAGFQPDAMCNIEKNENYQPKYGYWVIGLEEGVKCSAFQDSSFHTPSVPFIVPLSVIICPDRVGVFLDYEACTVSFFNITNHGFLIYKFSHCSFSQPVFPYLNPRKCGVPMTLCSPSS [human TRIM5α, 9-codon duplication at 331]	0.581 ± 0.18
MASGILVNVKEEVTCPICLELLTQPLSLDCGHSFCQACLTANHKKSMLDKGESSCPVCRISYQPENIRPNRHVANIVEKLREVKLSPEGQKVDHCARHGEKLLLFCQEDGKVICWLCERSQEHRGHHTFLTEEVAREYQVKLQAALEMLRQKQQEAEELEADIREEKASWKTQIQYDKTNVLADFEQLRDILDWEESNELQNLEKEEEDILKSLTNSETEMVQQTQSLRELISDLEHRLQGSVMELLQGVDGVIKRTENVTLKKPETFPKNQRRVFRAPDLKGMLEVFRELTDVRRYWVDVTVAPNNISCAVISEDKRQVSSPKPQIIYGARGTRYQTFVNFNYCTCTGILGSQSITSGKHYWEVDVSKKTAWILGVCAGFQPDAMCNIEKNENYQPKYGYWVIGLEEGVKCSAFQDSSFHTPSVPFIVPLSVIICPDRVGVFLDYEACTVSFFNITNHGFLIYKFSHCSFSQPVFPYLNPRKCGVPMTLCSPSS [human TRIM5α, 2-codon duplication at 345]	0.548 ± 0.25
MASGILVNVKEEVTCPICLELLTQPLSLDCGHSFCQACLTANHKKSMLDKGESSCPVCRISYQPENIRPNRHVANIVEKLREVKLSPEGQKVDHCARHGEKLLLFCQEDGKVICWLCERSQEHRGHHTFLTEEVAREYQVKLQAALEMLRQKQQEAEELEADIREEKASWKTQIQYDKTNVLADFEQLRDILDWEESNELQNLEKEEEDILKSLTNSETEMVQQTQSLRELISDLEHRLQGSVMELLQGVDGVIKRTENVTLKKPETFPKNQRRVFRAPDLKGMLEVFRELTDVRRYWVDVTVAPNNISCAVISEDKRQVSSPKPQIIYGARGTRYQTVNFNYCTGILGSQSITSGKHYWEVDVSKKTAWILGVCAGFQPDAMCNIEKNENYQPKYGYWVIGLEEGVKCSAFQDSSFHTPSVPFIVPLSVIICPDRVGVFLDYEACTVSFFNITNHGFLIYKFSHCSFSQPVFPYLNPRKCGVPMTLCSPSS [human TRIM5α, 1-codon deletion at 339]	0.525 ± 0.14
MASGILVNVKEEVTCPICLELLTQPLSLDCGHSFCQACLTANHKKSMLDKGESSCPVCRISYQPENIRPNRHVANIVEKLREVKLSPEGQKVDHCARHGEKLLLFCQEDGKVICWLCERSQEHRGHHTFLTEEVAREYQVKLQAALEMLRQKQQEAEELEADIREEKASWKTQIQYDKTNVLADFEQLRDILDWEESNELQNLEKEEEDILKSLTNSETEMVQQTQSLRELISDLEHRLQGSVMELLQGVDGVIKRTENVTLKKPETFPKNQRRVFRAPDLKGMLEVFRELTDVRRYWVDVTVAPNNISCAVISEDKRQVSSPKPQIIYGARGTRYQTFVNYCTGILGSQSITSGKHYWEVDVSKKTAWILGVCAGFQPDAMCNIEKNENYQPKYGYWVIGLEEGVKCSAFQDSSFHTPSVPFIVPLSVIICPDRVGVFLDYEACTVSFFNITNHGFLIYKFSHCSFSQPVFPYLNPRKCGVPMTLCSPSS [human TRIM5α, 2-codon deletion at 342]	0.313 ± 0.12
MASGILVNVKEEVTCPICLELLTQPLSLDCGHSFCQACLTANHKKSMLDKGESSCPVCRISYQPENIRPNRHVANIVEKLREVKLSPEGQKVDHCARHGEKLLLFCQEDGKVICWLCERSQEHRGHHTFLTEEVAREYQVKLQAALEMLRQKQQEAEELEADIREEKASWKTQIQYDKTNVLADFEQLRDILDWEESNELQNLEKEEEDILKSLTNSETEMVQQTQSLRELISDLEHRLQGSVMELLQGVDGVIKRTENVTLKKPETFPKNQRRVFRAPDLKGMLEVFRELTDVRRYWVDVTVAPNNISCAVISEDKRQVSSPKPQIIYGARGTRYQTFVTFVNFNYCTGILGSQSITSGKHYWEVDVSKKTAWILGVCAGFQPDAMCNIEKNENYQPKYGYWVIGLEEGVKCSAFQDSSFHTPSVPFIVPLSVIICPDRVGVFLDYEACTVSFFNITNHGFLIYKFSHCSFSQPVFPYLNPRKCGVPMTLCSPSS [human TRIM5α, 3-codon duplication at 338]	0.546 ± 0.39
MASGILVNVKEEVTCPICLELLTQPLSLDCGHSFCQACLTANHKKSMLDKGESSCPVCRISYQPENIRPNRHVANIVEKLREVKLSPEGQKVDHCARHGEKLLLFCQEDGKVICWLCERSQEHRGHHTFLTEEVAREYQVKLQAALEMLRQKQQEAEELEADIREEKASWKTQIQYDKTNVLADFEQLRDILDWEESNELQNLEKEEEDILKSLTNSETEMVQQTQSLRELISDLEHRLQGSVMELLQGVDGVIKRTENVTLKKPETFPKNQRRVFRAPDLKGMLEVFRELTDVRRYWVDVTVAPNNISCAVISEDKRQVSSPKPQIIYGARGTRYQTTGILGSQSITSGKHYWEVDVSKKTAWILGVCAGFQPDAMCNIEKNENYQPKYGYWVIGLEEGVKCSAFQDSSFHTPSVPFIVPLSVIICPDRVGVFLDYEACTVSFFNITNHGFLIYKFSHCSFSQPVFPYLNPRKCGVPMTLCSPSS [human TRIM5α, 7-codon deletion at 339]	0.955 ± 0.94
